Assay results from paper PMC4336329 (PLoS ONE, 2015).
Out of some 310,000 compounds screened, about 2,200 (0.71%) showed an effect of 50% or more. Effects have a minus sign here. The list shows a part of the results.

target: human ether-à-go-go-related gene (hERG) potassium channel (human, UniProt Q12809); test: primary screen, population patch clamp on CHO cells stably expressing hERG
Sequence (Q12809 whole entry, looked up): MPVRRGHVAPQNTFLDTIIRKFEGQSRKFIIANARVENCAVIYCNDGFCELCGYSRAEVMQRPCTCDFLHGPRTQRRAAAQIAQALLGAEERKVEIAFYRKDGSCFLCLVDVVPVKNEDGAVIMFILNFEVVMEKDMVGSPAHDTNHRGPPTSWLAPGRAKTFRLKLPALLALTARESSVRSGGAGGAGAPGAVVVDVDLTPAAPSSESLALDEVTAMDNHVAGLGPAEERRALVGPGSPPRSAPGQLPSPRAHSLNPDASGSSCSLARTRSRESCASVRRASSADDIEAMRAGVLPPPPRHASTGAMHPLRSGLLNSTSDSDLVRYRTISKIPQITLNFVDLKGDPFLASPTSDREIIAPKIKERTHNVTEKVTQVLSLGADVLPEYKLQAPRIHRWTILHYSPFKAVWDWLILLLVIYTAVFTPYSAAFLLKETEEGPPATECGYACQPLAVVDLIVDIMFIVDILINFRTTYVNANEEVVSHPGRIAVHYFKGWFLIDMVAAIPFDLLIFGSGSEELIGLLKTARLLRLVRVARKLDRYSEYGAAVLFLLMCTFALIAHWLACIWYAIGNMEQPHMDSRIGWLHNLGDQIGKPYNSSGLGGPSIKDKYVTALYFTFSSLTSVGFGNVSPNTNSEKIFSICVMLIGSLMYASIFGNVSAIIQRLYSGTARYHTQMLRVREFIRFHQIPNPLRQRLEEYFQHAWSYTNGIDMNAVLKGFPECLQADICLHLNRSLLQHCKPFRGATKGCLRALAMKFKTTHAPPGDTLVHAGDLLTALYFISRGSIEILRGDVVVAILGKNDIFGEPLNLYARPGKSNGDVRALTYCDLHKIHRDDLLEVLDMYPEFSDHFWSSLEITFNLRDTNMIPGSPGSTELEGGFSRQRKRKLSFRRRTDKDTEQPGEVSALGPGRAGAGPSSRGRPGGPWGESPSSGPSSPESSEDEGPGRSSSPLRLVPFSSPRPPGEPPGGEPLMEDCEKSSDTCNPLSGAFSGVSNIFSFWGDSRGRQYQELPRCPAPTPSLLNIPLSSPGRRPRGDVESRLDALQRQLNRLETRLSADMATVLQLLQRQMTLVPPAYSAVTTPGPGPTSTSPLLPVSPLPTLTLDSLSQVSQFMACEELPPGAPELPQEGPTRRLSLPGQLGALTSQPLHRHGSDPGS

SMILES | hERG current change (%, negative = inhibition) at 1uM
C#CCNC(=O)C1=C[C@@H](C2CCCCC2)[C@H](CCCO)[C@@H](OCC)O1 | 9.95%
COc1ccc(Cl)c(NCCC(=O)O)c1 | 6.69%
CC1(C)CC(=O)c2c(oc3ccc(NS(=O)(=O)c4ccc(C(=O)O)cc4)cc23)C1 | 13.2%
Cc1nc2sc(C(c3ccco3)N3CCC(C)CC3)c(O)n2n1 (stereo not drawn) | 5.41%
O=C(Nc1cccc(NC(=O)c2ccc(Br)o2)n1)c1ccc(Br)o1 | 2.37%
Cc1ccc(Sc2ncnc3onc(C)c23)cc1 | 7.16%
N#CCSCC(=O)Nc1ccc(Br)cc1 | 11.8%
O=C(c1noc2c1CCCC2)N1CCCCC1 | 0.265%
Cc1ccc(N(Cc2cc3ccc(C)cc3[nH]c2=O)S(=O)(=O)c2ccccc2)c(C)c1 | 15%
CCOc1cc(N2CCOCC2)c(OCC)cc1NC(=O)COC(=O)c1cc(C)cc(C)c1 | 14.2%
O=C(Cn1c(=O)n(-c2ccccc2)c(=O)n1CC(=O)N1CCCCC1)N1CCCCC1 | 8.33%
COC(=O)[C@H](C)[C@@H]1C[C@@]1(C)[C@@H](NC(=O)OCc1ccccc1)c1ccccc1 | 11.7%
CCCOc1ccc(CCC(=O)O)cc1 | 5.02%
CCC1=C(OC(=O)N(CC)CC)N2C(=O)OC(=NCC3CC3)[C@]2(Cc2ccccc2)[C@H]2C1=CC[C@H]1C(=O)N(c3ccccc3)C(=O)[C@H]12 | 6.82%
CCOc1ccc(NS(=O)(=O)c2ccc3[nH]c(=O)oc3c2)cc1 | 7.74%
COc1ccc([C@@H](NC(=O)OC(C)(C)C)C(=O)OC(C)(C)C)cc1 | 8.97%
O=C(Cc1ccccc1F)Nc1ccccc1N1CCCC1 | 6.58%
Oc1c(/C=N/Nc2cccc3cccnc23)ccc2ccccc12 | 6.88%
CN1CCN(CCOC2c3ccccc3CSc3ccc(Cl)cc32)CC1.O=C(O)/C=C\C(=O)O (stereo not drawn) | -4.39%
Cc1cccc(CN2CCN(Cc3ccco3)CC2)c1.O=C(O)C(=O)O | 13.2%
CCC(C)N=C1SCC(C)(/C=N/O)S1 (stereo not drawn) | 1.02%
O=C(Cn1[nH]c(=O)c2ccccc2c1=O)Nc1ccc2c(c1)CCC2 | -6.78%
C=CCNC(=O)c1ccc(N(Cc2ccccc2)S(C)(=O)=O)cc1 | 7.13%

SMILES | hERG current change (%, negative = inhibition) at 1uM
CCOC(=O)C1=C(C)N(CCCCCC(=O)O)C(=O)NC1c1ccc([N+](=O)[O-])cc1 (stereo not drawn) | 6.61%
CC(C)C(=O)N(c1ccc(F)cc1)C1C=CS(=O)(=O)C1 (stereo not drawn) | 5.57%
COCCCNC(=O)CCc1ccc(S(=O)(=O)Nc2ccc(C)cc2)cc1 | 4.6%
CN1C(=O)N(C)C2C1N(CN1CCCCC1)C(=O)N2CN1CCCCC1 (stereo not drawn) | 15.9%
O=C(NC(=S)Nc1cccc2ncccc12)c1cccs1 | -8.67%
COc1ccc(NC(=O)Nc2ccccc2F)c(C)c1 | 10.3%
NC(=O)c1ccc(NC(=O)c2ccc(CN3CCOCC3)cc2)cc1 | 0.733%
CCOc1cc(C=O)cc(N=Nc2cccc([N+](=O)[O-])c2)c1O | 14.2%
Cl.O=C(CN1CCN(Cc2ccccc2)CC1)N1CCCCCC1 | -3.64%
Cc1ccc(NC(=O)Cn2cccc2)cc1C | 0.532%
COc1ccc(CNC(=O)c2cccnc2SC)cc1OC | 13.3%
O=C(O)CCC(=O)OCC1CCCO1 (stereo not drawn) | 2.46%
O=C(NNC(=S)NC1CCCCC1)c1cccs1 | 2.13%
CCN(CC)C(CNC(=O)CSc1nnnn1-c1cccc(F)c1)c1ccco1 (stereo not drawn) | 16.8%
Clc1ccc(-c2nnc(NC3=NCCCCC3)o2)cc1 | 10%
COc1ccc(/C=C/C(=O)Nc2ccc3c(c2)OCCO3)cc1OC | 11.3%
COc1ccc(CCNC(=O)c2nnc(CS(=O)(=O)c3ccccc3)o2)cc1OC | 0.362%
Cc1cc(Br)cc2c1NC(=O)C2(c1c(C)n(C)n(-c2ccccc2)c1=O)c1c(C)n(C)n(-c2ccccc2)c1=O | 9.88%
O=C(COC(=O)C1CCN(S(=O)(=O)c2ccccc2)CC1)NC(=O)c1ccc(OC(F)F)cc1 | 9.75%
CCc1ccc(CN(C)C(=O)CCc2nnc(-c3ccc(-c4ccccc4)cc3)o2)nc1 | -11.4%
CCOc1cc(CNc2ccc(N3CCCCC3)cc2)cc(Br)c1OCC(=O)NC(C)(C)C | 0.842%
CC1(C)C(=O)C2(CCCCC2)C(=O)OC1c1ccc(O)cc1 (stereo not drawn) | 9.66%
CN(C)c1ccc(C2NCC(CCl)O2)cc1 (stereo not drawn) | 8.38%

SMILES | hERG current change (%, negative = inhibition) at 1uM
O=C(CSc1ncccn1)NCc1ccccc1 | 8.59%
COc1cnc(SCc2c(Cl)cccc2Cl)nc1Cl | 6.81%
Cc1ccc(C(=O)NC2CC3CCC(C2)N3)cc1 (stereo not drawn) | 14.8%
Cc1ccc(C(=O)Nc2cccc(-c3ccc(N4CCOCC4)nn3)c2)cc1 | 4.57%
Cc1cc(-c2nnnn2-c2cc(Cl)cc(Cl)c2)no1 | 6.64%
COc1cc(O)c2c(c1)COC2=O | 11.7%
O=C(CSc1nc2ccccc2c(=O)n1NC(=O)Cc1ccccc1)NCCc1ccccc1 | -4.49%
Cc1cccc(C(=O)c2c[nH]cc2-c2ccccc2)c1 | 3.09%
Cc1ccc(CNC(=O)CCC2CCCN(Cc3cccc4cccnc34)C2)o1 (stereo not drawn) | -27.4%
CCCCn1c(SCC(=O)N2CCCC2)nc2cc(S(N)(=O)=O)ccc21 | 11.8%
COc1ccc(Nc2ncccc2C(=O)Nc2ccccc2)cc1 | 6.89%
Cl.O=S(=O)(CCC1CCCCN1)c1ccccc1 (stereo not drawn) | 12.8%
O=c1oc(Cc2ccccc2)nc2ccccc12 | 14.1%
O=C(NCCc1ccccc1)C1CCN(C(=O)Nc2ccccc2)CC1 | 13.3%
COc1cc(CN2CCNC(=O)C2CC(=O)NCCCN2CCOCC2)cc(OC)c1 (stereo not drawn) | 11.6%
CCCCN(C)CCNC(=O)c1c[nH]c2ccc(S(=O)(=O)N(CC)CC)cc2c1=O | 11.3%
Cn1c(=O)oc2cc(S(=O)(=O)N3CCc4ccccc43)ccc21 | 4.57%
COc1ccc(NC(=O)c2ccc(C(=O)c3cc(OC)ccc3OC)cc2)cc1 | 3.08%
CC1CCCN(C(=O)CNC(=O)c2cccs2)C1 (stereo not drawn) | 5.23%
Cc1cccc(N(CC(=O)NCC2CCCO2)C(=O)CCC(=O)Nc2cc(C)on2)c1 (stereo not drawn) | 15.6%
COc1ccc(N2C(=O)CSC2c2ccc3c(c2)OCO3)c(OC)c1 (stereo not drawn) | 6.03%
O=C(NC1CC1)C1CCN(c2nc3ccccc3s2)CC1 | 6.3%
CN(C)c1ccc(C(CNS(=O)(=O)c2ccc3ccccc3c2)N2CCOCC2)cc1 (stereo not drawn) | 1.96%

SMILES | hERG current change (%, negative = inhibition) at 1uM
O=C(NCc1ccco1)c1cc2nc(-c3cccs3)cc(C(F)(F)F)n2n1 | -5.2%
CN(C)CCCN(C(=O)c1nc2ccccc2s1)c1nc2ccc(F)cc2s1.Cl | 8.02%
Cc1ccc(-c2nn(-c3ccccc3)cc2C(=O)NN2CCN(C)CC2)cc1.Cl | 11.2%
CC(C(=O)N1CCCCC1)n1ncn2cccc2c1=O (stereo not drawn) | 7.52%
O=C(CSc1cccc[n+]1[O-])Nc1cccc(Oc2ccccc2)c1 | 4.77%
O=C(CN1C(=O)NC2(CCCCCC2)C1=O)NCc1cccs1 | 0.855%
COC(=O)CN1C(=S)N(C)C(=O)/C1=C/c1cccs1 | 8.48%
CCOC(=O)C1CCN(C(=O)CCCCn2c(=O)[nH]c3ccccc3c2=O)CC1 | -5.65%
CSc1nc(NCc2ccco2)c2c3c(sc2n1)CN(C)CC3 | -38.8%
Cc1cc2nnc(SCC(=O)Nc3cc(S(=O)(=O)N4CCOCC4)ccc3Cl)n2c2ccccc12 | 6.9%
Cc1ccc(C2CCN(C(=O)Nc3ccccc3)C2)cc1 (stereo not drawn) | 11.5%
CCOC(=O)C(C)Oc1cccc2c(=O)n(CC(=O)NCCc3ccccc3)ccc12 (stereo not drawn) | -0.505%
CC1(C)Cc2c(cnn2-c2ccc(F)cc2)C(NC(=O)CCN2CCCCC2=O)C1 (stereo not drawn) | 10.4%
CCc1nnc(NC(=O)CN2C(=O)/C(=C/c3ccc(OC)c(OC)c3)SC2=S)s1 | 3.13%
C[N+](C)(N)CCOC(=O)C(O)(c1ccccc1)C1CCCCC1.[Br-] (stereo not drawn) | 0.351%
CC1CC(=O)Nc2ccccc2N1S(=O)(=O)c1ccc(C(F)(F)F)cc1 (stereo not drawn) | 6.72%
CCN(CC)c1ccc(C(=S)NC2CCCCC2)cc1 | 6.45%
Cc1ccc(C)c(Cn2c(=O)n(CCC(=O)NCc3ccco3)c(=O)c3ccccc32)c1 | -3.31%
CN1CCN(C(=O)C(Cc2ccccc2)NS(=O)(=O)c2ccc3c(c2)CCC(=O)N3)CC1 (stereo not drawn) | -3.22%
O=C(NCCC1=CCCCC1)N[C@@H](Cc1ccccc1)C(=O)O | 9.13%
O=C(c1ccc(CN2CCOCC2)cc1)N1CCC(Cc2ccccc2)CC1 | -0.0045%
